# Active and inactive are the calls of the source. Unless noted, calls follow the shape of the dose curve; as a rule, active = well fitted curve in the direction sought with a large enough effect in the repeat runs; inconclusive = weak or mixed curves; inactive = no such curve, though single readings can be large; an effect the other way counts as inactive or inconclusive.
# Experiments:
# [1] = qHTS assay for small molecule agonists of the p53 signaling pathway (AID 651631; calls by dose curve; also: nearly all actives have a fitted effect of over 15% in size; also: potency is read from the fitted curve at half-maximal effect); details: HCT-116 p53RE-bla reporter, beta-lactamase FRET ratio, 16 h; activation: at 73.3 µM (top of the series) unless noted
# Method in brief: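 Fluorescence intensity from cleaved LiveBLAzer B/G substrate (2 h, room temperature) served as the signal. Beforehand, HCT-116 reporter cells bearing p53 response elements were treated 16 h at 37 °C with DMSO-dissolved compounds.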
# [2] = qHTS assay for identifying genotoxic compounds that show differential cytotoxicity against isogenic chicken DT40 cell lines with known DNA damage response pathways - wild type cell line (AID 743012); details: DT40 wild type chicken cells viability, CellTiter-Glo, 40 h; activity change, negative = cytotoxicity: at 68.4 µM (top of the series) unless noted; also: % is scaled to controls: 0 for no effect and ±100 for the full control effect; nearly all actives have a fitted effect of over 60% in size
# Method in brief: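 Cells (DT40 wild type, 300/well) are treated with DMSO-dissolved compounds after a ~0.5 h pre-incubation and kept 40 h at 37 C/5% CO2. Viability is then measured by CellTiter-Glo luminescence following 30 min at room temperature.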
# [3] = qHTS assay to identify small molecule antagonists of the thyroid receptor (TR) signaling pathway - cell viability counter screen (AID 743064); details: GH3.TRE-Luc viability, CellTiter-Fluor, 24 h; activity change, negative = cytotoxic: at 70.3 µM (top of the series) unless noted; also: nearly all actives have a fitted effect of over 50% in size; also: potency is read from the fitted curve at half-maximal effect
# Method in brief: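 Same-well viability check: GH3.TRE-Luc cells stimulated with 1 nM T3 alongside test compound for 23.5 h, followed by CellTiter-Fluor fluorescence.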
# [4] = target: Estrogen receptor (Homo sapiens) (UniProt P03372); experiment: qHTS assay to identify small molecule agonists of the estrogen receptor alpha (ER-alpha) signaling pathway (AID 743075; calls by dose curve;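 also: HEK293 GripTite cells with ER-alpha and UAS-driven beta-lactamase reporter; % is scaled to controls: 0 for no effect and ±100 for the full control effect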); details: HEK293 ER-alpha-UAS-bla, beta-lactamase FRET ratio, 18 h; activation: at 70.1 µM (top of the series)
# Sequence of UniProt P03372 (P03372 whole entry, looked up): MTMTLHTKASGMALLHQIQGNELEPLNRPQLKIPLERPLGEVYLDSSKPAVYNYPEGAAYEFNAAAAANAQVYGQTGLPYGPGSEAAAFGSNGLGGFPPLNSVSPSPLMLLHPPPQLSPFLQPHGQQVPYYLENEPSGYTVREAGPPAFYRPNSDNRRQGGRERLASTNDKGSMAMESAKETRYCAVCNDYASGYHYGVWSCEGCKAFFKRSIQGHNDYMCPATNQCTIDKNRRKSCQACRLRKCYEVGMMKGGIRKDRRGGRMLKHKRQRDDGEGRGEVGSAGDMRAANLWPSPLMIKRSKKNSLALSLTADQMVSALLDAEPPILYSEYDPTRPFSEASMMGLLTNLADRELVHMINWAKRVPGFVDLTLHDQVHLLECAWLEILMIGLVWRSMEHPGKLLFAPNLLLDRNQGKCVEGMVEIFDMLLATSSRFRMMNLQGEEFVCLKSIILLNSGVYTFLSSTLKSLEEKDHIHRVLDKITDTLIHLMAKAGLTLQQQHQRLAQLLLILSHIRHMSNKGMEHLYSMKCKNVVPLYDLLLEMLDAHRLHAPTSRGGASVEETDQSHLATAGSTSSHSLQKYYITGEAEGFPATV
# [5] = qHTS assay to identify small molecule that activate the aryl hydrocarbon receptor (AhR) signaling pathway - cell viability counter screen (AID 743086); also: potency is read from the fitted curve at half-maximal effect; nearly all actives have a fitted effect of over 45% in size
# Method in brief: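 HepG2-AhR-luc (HG2L7.5c1) cells, 4000/well, treated 24 h at 37 C with compound; viability measured as CellTiter-Fluor fluorescence after 30 min in the same wells as the luciferase read.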
# [6] = target: Glucocorticoid receptor (Homo sapiens) (UniProt P04150); experiment: qHTS assay to identify small molecule agonists of the glucocorticoid receptor (GR) signaling pathway (AID 720691; active = well fitted activation curve with a large enough effect in the signal ratio in the repeat runs, not every such curve was filed as active; inconclusive = weak or mixed curves, or effect the other way; inactive = no such curve, though single readings can be large or run the other way; the % refers to the signal ratio; also: potency is read from the fitted curve at half-maximal effect); details: GR-bla HeLa, beta-lactamase reporter ratio, 18 h; activation: at 62.4 µM (top of the series) unless noted
# Sequence of UniProt P04150 (P04150 whole entry, looked up): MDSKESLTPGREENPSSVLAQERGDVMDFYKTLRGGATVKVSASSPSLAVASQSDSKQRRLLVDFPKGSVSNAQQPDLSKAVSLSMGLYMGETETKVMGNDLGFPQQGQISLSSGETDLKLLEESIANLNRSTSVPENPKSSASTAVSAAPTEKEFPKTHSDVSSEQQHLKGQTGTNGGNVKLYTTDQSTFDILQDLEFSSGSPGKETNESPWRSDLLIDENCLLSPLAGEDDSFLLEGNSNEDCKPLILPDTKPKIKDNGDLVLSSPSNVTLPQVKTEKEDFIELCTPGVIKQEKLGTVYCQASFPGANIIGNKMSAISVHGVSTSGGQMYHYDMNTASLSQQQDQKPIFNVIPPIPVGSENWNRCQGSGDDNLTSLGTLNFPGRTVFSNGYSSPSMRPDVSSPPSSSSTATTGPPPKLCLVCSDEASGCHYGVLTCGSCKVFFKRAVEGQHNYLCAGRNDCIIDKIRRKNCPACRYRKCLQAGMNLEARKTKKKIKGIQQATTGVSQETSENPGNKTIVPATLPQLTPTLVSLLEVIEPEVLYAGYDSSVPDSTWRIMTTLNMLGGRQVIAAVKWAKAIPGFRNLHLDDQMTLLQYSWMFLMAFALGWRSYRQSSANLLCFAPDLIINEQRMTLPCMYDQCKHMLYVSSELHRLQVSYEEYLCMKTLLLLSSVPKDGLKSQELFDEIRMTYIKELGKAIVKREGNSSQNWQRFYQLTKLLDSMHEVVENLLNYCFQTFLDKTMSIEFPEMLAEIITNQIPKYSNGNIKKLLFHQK
# Method in brief: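 Agonist mode in a HeLa line carrying a GRE-controlled beta-lactamase reporter. Compounds act for 18 h at 37 C before a 2 h room-temperature FRET substrate step and fluorescence reading.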
# [7] = target: Glucocorticoid receptor (Homo sapiens) (UniProt P04150); experiment: qHTS assay to identify small molecule antagonists of the glucocorticoid receptor (GR) signaling pathway (AID 720692; active = well fitted inhibition curve with a large enough effect in the signal ratio in the repeat runs, not every such curve was filed as active; inconclusive = weak or mixed curves, or effect the other way; inactive = no such curve, though single readings can be large or run the other way; the % refers to the signal ratio; also: potency is read from the fitted curve at half-maximal effect); details: GR-bla HeLa, beta-lactamase FRET ratio, dexamethasone-stimulated, 18 h; activity change, negative = inhibition: at 58.5 µM (top of the series) unless noted
# Method in brief: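 Cells plated, rested 4 h at 37 C/5% CO2; compounds in DMSO pin-transferred; dexamethasone added to 5 nM final; 18 h at 37 C; B/G FRET substrate added, 2 h room temperature; fluorescence measured.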
# [8] = qHTS assay for small molecule disruptors of the mitochondrial membrane potential (AID 720635); details: HepG2 mitochondrial membrane potential, Mito-MPS dye ratio; ratio activity, negative = MMP loss: at 83.2 µM (top of the series) unless noted; also: % is scaled to controls: 0 for no effect and ±100 for the full control effect
# Method in brief: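 HepG2 cells exposed to compound 1 hr at 37C, then Mito-MPS dye 30 min. Ratio read of aggregate (540/590 nm) versus monomer (490/535 nm) fluorescence.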
# [9] = qHTS assay to identify small molecule antagonists of the estrogen receptor alpha (ER-alpha) signaling pathway - cell viability counter screen (AID 743074; calls by dose curve;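 also: HEK293 cells carrying ER-alpha-UAS-bla reporter stimulated with 17beta-estradiol; % is scaled to controls: 0 for no effect and ±100 for the full control effect; nearly all actives have a fitted effect of over 45% in size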)
# [10] = target: Aryl hydrocarbon receptor (Homo sapiens) (UniProt P35869); experiment: qHTS assay to identify small molecule that activate the aryl hydrocarbon receptor (AhR) signaling pathway (AID 743085); also: nearly all actives have a fitted effect of over 15% in size; also: potency is read from the fitted curve at half-maximal effect
# Sequence of UniProt P35869 (P35869 whole entry, looked up): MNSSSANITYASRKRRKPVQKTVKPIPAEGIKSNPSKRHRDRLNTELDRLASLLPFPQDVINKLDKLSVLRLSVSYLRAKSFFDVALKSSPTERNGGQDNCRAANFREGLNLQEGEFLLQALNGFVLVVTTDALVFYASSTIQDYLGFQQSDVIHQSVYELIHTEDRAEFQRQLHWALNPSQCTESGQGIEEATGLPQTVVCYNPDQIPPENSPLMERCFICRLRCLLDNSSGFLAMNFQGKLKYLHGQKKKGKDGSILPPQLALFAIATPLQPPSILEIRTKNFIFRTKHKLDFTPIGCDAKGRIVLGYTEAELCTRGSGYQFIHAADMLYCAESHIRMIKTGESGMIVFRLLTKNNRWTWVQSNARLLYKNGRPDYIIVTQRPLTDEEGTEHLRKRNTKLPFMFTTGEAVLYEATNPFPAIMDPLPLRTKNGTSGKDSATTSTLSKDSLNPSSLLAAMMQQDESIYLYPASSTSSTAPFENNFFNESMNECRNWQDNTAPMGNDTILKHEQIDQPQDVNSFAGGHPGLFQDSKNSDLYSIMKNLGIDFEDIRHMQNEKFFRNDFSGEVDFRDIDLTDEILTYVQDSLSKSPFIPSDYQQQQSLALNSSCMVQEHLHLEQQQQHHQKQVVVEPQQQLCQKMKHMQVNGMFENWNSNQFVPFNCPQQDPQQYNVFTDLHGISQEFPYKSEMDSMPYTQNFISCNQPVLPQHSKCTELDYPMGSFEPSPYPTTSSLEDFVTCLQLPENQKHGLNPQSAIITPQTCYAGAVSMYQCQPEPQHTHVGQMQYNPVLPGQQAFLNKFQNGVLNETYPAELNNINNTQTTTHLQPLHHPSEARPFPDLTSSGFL
# Method in brief: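 Reporter assay in engineered HepG2 line HG2L7.5c1, whose plasmid carries twenty dioxin responsive elements upstream of firefly luciferase. Treatment lasted 24 h at 37C; ONE-Glo luminescence gauged induction.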
# [11] = target: Peroxisome proliferator-activated receptor gamma (Homo sapiens) (UniProt P37231); experiment: qHTS assay to identify small molecule agonists of the peroxisome proliferator-activated receptor gamma (PPARg) signaling pathway (AID 743094; active = well fitted activation curve with a large enough effect in the signal ratio in the repeat runs, not every such curve was filed as active; inconclusive = weak or mixed curves, or effect the other way; inactive = no such curve, though single readings can be large or run the other way; the % refers to the signal ratio; also: % is scaled to controls: 0 for no effect and ±100 for the full control effect); details: HEK293H PPARg-UAS-bla, beta-lactamase FRET ratio, 17 h; activation: at 57 µM (top of the series) unless noted
# Sequence of UniProt P37231 (P37231 whole entry, looked up): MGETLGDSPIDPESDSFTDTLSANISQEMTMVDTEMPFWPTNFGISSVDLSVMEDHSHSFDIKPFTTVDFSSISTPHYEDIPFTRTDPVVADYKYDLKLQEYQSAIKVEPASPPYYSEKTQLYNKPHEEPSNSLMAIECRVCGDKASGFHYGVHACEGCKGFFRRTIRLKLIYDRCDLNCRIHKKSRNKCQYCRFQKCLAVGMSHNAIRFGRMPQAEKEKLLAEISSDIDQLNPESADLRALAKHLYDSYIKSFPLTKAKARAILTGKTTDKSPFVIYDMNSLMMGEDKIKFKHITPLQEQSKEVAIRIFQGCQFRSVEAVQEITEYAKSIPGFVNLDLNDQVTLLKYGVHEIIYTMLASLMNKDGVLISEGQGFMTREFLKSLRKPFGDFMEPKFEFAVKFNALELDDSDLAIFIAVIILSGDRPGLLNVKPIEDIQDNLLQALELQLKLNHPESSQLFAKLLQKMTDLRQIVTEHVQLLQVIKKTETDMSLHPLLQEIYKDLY
# Method in brief: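 Quantitative HTS agonist mode: stable HEK293H line with UAS-beta-lactamase reporter under PPARg control, 17 h compound exposure at 37C, fluorescence after 1 h FRET substrate loading at room temperature.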
# [12] = system: thyroid hormone receptor (rat, GH3 cells); experiment: qHTS assay to identify small molecule agonists of the thyroid receptor (TR) signaling pathway (AID 743066; calls by dose curve; also: % is scaled to controls: 0 for no effect and ±100 for the full control effect); details: GH3.TRE-Luc cells, TR agonist luciferase, 24 h; activation: at 83.9 µM (top of the series) unless noted
# [13] = qHTS assay to identify small molecule antagonists of the estrogen receptor alpha (ER-alpha) signaling pathway using the BG1 cell line (AID 743080; calls by dose curve;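 also: BG1 cells stimulated with 17beta-estradiol alongside compound; nearly all actives have a fitted effect of over 25% in size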; also: potency is read from the fitted curve at half-maximal effect); details: BG1Luc4E2 ERE-luciferase antagonist mode, luminescence; activity change, negative = inhibition: at 70.3 µM (top of the series) unless noted
# Method in brief: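 BG1-Luc-4E2 cells (endogenous full-length ER-alpha, 4xERE luciferase) hormone-starved 5 days in charcoal-stripped FBS, plated 4,000/well for 24 h, then compound plus 17beta-estradiol for 21.5 h at 37 C; ONE-Glo luminescence read.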
# Aromatase (Homo sapiens) = Aromatase (Homo sapiens) (UniProt P11511); experiment: qHTS assay to identify aromatase inhibitors (AID 743083); also: potency is read from the fitted curve at half-maximal effect; nearly all actives have a fitted effect of over 55% in size
# Sequence of UniProt P11511 (P11511 whole entry, looked up): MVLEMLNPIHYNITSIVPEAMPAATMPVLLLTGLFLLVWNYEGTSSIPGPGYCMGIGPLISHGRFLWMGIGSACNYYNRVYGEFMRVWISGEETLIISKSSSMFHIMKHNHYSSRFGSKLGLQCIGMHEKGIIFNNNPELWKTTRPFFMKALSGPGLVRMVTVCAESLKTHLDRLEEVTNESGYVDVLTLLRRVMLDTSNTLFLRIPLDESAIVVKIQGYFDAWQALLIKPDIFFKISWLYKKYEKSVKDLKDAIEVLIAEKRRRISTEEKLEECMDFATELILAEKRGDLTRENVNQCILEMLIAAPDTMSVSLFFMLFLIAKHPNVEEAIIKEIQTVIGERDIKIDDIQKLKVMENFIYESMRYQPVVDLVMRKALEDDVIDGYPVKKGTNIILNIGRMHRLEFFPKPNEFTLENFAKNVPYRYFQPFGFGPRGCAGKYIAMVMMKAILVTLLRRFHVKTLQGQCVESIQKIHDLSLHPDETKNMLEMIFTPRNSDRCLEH
# [14] = qHTS assay to identify small molecule antagonists of the glucocorticoid receptor (GR) signaling pathway - cell viability counter screen (AID 720693); details: GR-bla HeLa viability, CellTiter-Glo luminescence, 18 h, with 5 nM dexamethasone present; viability change, negative = cytotoxic: at 58.5 µM (top of the series); also: potency is read from the fitted curve at half-maximal effect; nearly all actives have a fitted effect of over 55% in size
# [15] = qHTS assay for identifying genotoxic compounds that show differential cytotoxicity against isogenic chicken DT40 cell lines with known DNA damage response pathways - Rad54/Ku70 mutant cell line (AID 743015); details: DT40 Rad54/Ku70 mutant viability, CellTiter-Glo, 40 h; activity change, negative = cytotoxicity: at 66.8 µM (top of the series) unless noted; also: potency is read from the fitted curve at half-maximal effect; nearly all actives have a fitted effect of over 60% in size
# [16] = qHTS assay to identify small molecule antagonists of the estrogen receptor alpha (ER-alpha) signaling pathway using the BG1 cell line - cell viability counter screen (AID 743081); details: BG1Luc4E2 viability, CellTiter-Fluor, 22 h; activity change, negative = cytotoxicity: at 70.3 µM (top of the series) unless noted;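 also: compound given together with 17beta-estradiol as the ER stimulus; potency is read from the fitted curve at half-maximal effect; nearly all actives have a fitted effect of over 45% in size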
# [17] = qHTS assay to identify small molecule antagonists of the thyroid receptor (TR) signaling pathway (AID 743065); also: % is scaled to controls: 0 for no effect and ±100 for the full control effect; nearly all actives have a fitted effect of over 55% in size
# Method in brief: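 GH3.TRE-Luc rat pituitary cells (two TREs driving luciferase) were dosed with compound, then stimulated with 1 nM T3 (final) for 23.5 h at 37 C. ONE-Glo luminescence was the read-out, with CellTiter-Fluor fluorescence as the cytotoxicity counter-screen.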
# [18] = target: Estrogen receptor (Homo sapiens) (UniProt P03372); experiment: qHTS assay to identify small molecule antagonists of the estrogen receptor alpha (ER-alpha) signaling pathway (AID 743069; active = well fitted curve in the direction sought with a large enough effect in the signal ratio in the repeat runs, not every such curve was filed as active; inconclusive = weak or mixed curves, or effect the other way; inactive = no such curve, though single readings can be large or run the other way; the % refers to the signal ratio; also: potency is read from the fitted curve at half-maximal effect); details: HEK293 ER-alpha-UAS-bla, beta-lactamase ratio, antagonist mode; activity, negative = inhibition: at 69.4 µM (top of the series) unless noted
# Method in brief: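 Reporter cells (ER-alpha-bla, HEK293 background) are conditioned overnight in stripped-serum medium (2% charcoal-stripped FBS). Compound and 17beta-estradiol exposure runs 18 hr at 37C, 5% CO2.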
# Tags tell the direction and shape of the fitted curve or compound fluorescence and quenching.
smiles,measurement,setting,value
CC1CS(=O)(=O)CCN1/N=C/c1ccc([N+](=O)[O-])o1 (configuration not stated),Potency,[1],"inconclusive: 1.43 µM [activator, single point]"
same,Potency,[2],inactive
same,Potency,[3],"inconclusive: 6.39 µM [cytotoxic, partial curve]"
same,Potency,[4],inactive
same,Potency,[5],"inconclusive: 8.04 µM [falling, partial curve]"
O=C(O)[C@H]1/C(=C/CO)O[C@@H]2CC(=O)N21,Potency,[1],"inconclusive: 0.0053 µM [inhibitor, full curve]"
same,Potency,[6],"inconclusive: 0.19 µM [inhibitor, full curve]"
same,Potency,[7],"inconclusive: 0.134 µM [rising, full curve, poor fit]"
CC(C)(C)NCC(O)c1ccc(O)c(CO)n1 (configuration not stated),Potency,[1],"inconclusive: 33.5 µM [activator, single point]"
same,"ratio activity, negative = MMP loss",[8],inconclusive: 2.14%
same,"activity change, negative = cytotoxic",[3],inconclusive: 31.5%
same,Potency,[9],inactive
CC(=O)N=c1sc(S(N)(=O)=O)nn1C,Potency,[1],"inconclusive: 12.7 µM [activator, single point]"
same,"ratio activity, negative = MMP loss",[8],inconclusive: -8.29% [at 39.1 µM]
same,Potency,[3],inactive
same,Potency,[10],inactive
same,Potency,[11],inactive
CC1=C(/C=C/C(C)=C/C=C/C(C)=C/C(=O)Oc2c(C)c(C)c3c(c2C)CC[C@@](C)(CCC[C@H](C)CCC[C@H](C)CCCC(C)C)O3)C(C)(C)CCC1,Potency,[1],"inconclusive: 0.376 µM [falling, single point]"
same,"activity change, negative = inhibition",[7],inconclusive: 0.141%
same,Potency,[3],inactive
same,activation,[12],inconclusive: 5.4% [phenotype inactive]
same,Potency,[13],active: 7.5 µM
same,Potency,Aromatase (Homo sapiens),"inconclusive: 3.35 µM [inhibitor, full curve]"
same,Potency,[11],inactive
C=C1/C(=C\C=C2/CCC[C@]3(C)[C@@H]([C@H](C)OCCC(C)(C)O)CC[C@@H]23)C[C@@H](O)C[C@@H]1O,Potency,[1],active: 11.9 µM
same,Potency,[14],"inconclusive: 23.9 µM [cytotoxic, partial curve, poor fit]"
same,Potency,[15],active: 13.3 µM
same,Potency,[16],"inconclusive: 11.9 µM [rising, partial curve, poor fit]"
same,Potency,[10],"inconclusive: 26.6 µM [activator, partial curve, poor fit]"
same,Potency,[5],"inconclusive: 33.5 µM [falling, partial curve, poor fit]"
CC(=O)OCC(=O)[C@@]1(O)CC[C@H]2[C@@H]3C[C@H](C)C4=CC(=O)C=C[C@]4(C)[C@H]3[C@@H](O)C[C@@]21C,Potency,[1],inactive
same,Potency,[6],active: 0.134 µM [inconclusive]
same,Potency,[7],"inconclusive: 0.0379 µM [activator, full curve]"
same,Potency,[15],"inconclusive: 33.5 µM [cytotoxic, single point]"
same,Potency,[17],inactive
same,Potency,[18],"inconclusive: 0.0054 µM [activator, full curve]"
same,"activity change, negative = inhibition",[13],inconclusive: 5.3%

# Reference: PubChem BioAssay (Tox21)
